From article PMC4336329 (PLoS ONE, 2015) come the findings set out here.

Hit rate of the full screen: of about 310,000 compounds, about 2,200 (0.71%) showed an effect of 50% or more. The effect is printed as a negative number. Some of the results follow.

The target in the assay is human ether-à-go-go-related gene (hERG) potassium channel (human, UniProt Q12809). As to the kind of experiment: primary screen, population patch clamp on CHO cells stably expressing hERG.
human ether-à-go-go-related gene (hERG) potassium channel, sequence (Q12809 whole entry, looked up): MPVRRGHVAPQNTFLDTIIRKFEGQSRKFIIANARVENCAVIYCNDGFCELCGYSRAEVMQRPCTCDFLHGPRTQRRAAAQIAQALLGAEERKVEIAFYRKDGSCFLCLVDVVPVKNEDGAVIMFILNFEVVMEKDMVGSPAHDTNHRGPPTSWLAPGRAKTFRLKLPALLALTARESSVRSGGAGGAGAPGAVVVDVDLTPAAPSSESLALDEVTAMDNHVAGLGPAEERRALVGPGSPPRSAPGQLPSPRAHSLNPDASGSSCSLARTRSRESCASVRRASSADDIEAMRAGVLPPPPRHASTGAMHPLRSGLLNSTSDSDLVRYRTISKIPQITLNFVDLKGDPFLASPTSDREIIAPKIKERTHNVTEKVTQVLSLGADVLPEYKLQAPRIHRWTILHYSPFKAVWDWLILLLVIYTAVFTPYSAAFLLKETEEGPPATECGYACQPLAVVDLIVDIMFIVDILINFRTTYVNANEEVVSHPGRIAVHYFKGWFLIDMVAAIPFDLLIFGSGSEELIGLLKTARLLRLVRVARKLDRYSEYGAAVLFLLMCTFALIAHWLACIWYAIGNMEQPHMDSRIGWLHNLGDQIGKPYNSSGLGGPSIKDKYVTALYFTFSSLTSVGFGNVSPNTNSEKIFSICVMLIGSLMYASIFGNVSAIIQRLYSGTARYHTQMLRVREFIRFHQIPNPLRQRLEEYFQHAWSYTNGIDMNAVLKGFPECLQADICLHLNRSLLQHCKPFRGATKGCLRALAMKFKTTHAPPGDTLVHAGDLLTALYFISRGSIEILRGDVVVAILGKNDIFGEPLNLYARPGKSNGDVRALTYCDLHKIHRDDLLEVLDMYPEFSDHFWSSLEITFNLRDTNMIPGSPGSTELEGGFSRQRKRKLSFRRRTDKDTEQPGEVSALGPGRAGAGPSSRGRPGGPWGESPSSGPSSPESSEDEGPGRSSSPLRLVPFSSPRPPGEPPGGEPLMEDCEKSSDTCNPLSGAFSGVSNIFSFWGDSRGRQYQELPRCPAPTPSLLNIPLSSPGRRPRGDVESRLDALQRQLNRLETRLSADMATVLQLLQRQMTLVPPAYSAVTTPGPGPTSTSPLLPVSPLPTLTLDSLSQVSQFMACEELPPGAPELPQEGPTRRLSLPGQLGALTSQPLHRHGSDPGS
As to `COc1ccc(CCN(C)C(=O)C2CC(=O)N(Cc3ccc(C)cc3)C2)cc1OC` (stereo not drawn), the “hERG current change (%, negative = inhibition) at 1uM” value came to 6.14%.
`Cc1cc(O)c2c3c(c(=O)oc2c1)CCC(C)C3` (stereo not drawn): the “hERG current change (%, negative = inhibition) at 1uM” value turned out to be 10.1%.
For `CN(C)C(=Nc1ccccc1)P(=S)(N(C)C)N(C)C` the value was 12.3%; for `CCOc1cc(/C=N\Nc2nc(-c3ccc(C)cc3)c(NC(C)=O)s2)ccc1O`, 1.33%; for `COc1ccccc1NC(=O)C1C2C=CC3(CN(Cc4cccnc4)C(=O)C13)O2` (stereo not drawn), 14.4%.
For `Cc1ccccc1-c1cc2nc(-c3ccc([N+](=O)[O-])cc3)cc(=O)n2[nH]1` the value was 16.9%.
For `O=c1c(C=Nc2ccc(Cl)cc2)c[nH]n1-c1cccc(Cl)n1` the value was 11.3%; for `COC(=O)CSCc1nc2ccccc2[nH]c1=O`, 14.6%.
As to `CC1(C)OC(=O)C=C(CC2NS(=O)(=O)OC3CCCCC23)O1` (stereo not drawn), the “hERG current change (%, negative = inhibition) at 1uM” value was 6.9%.
For `O=C1CC(c2ccccc2)CN1` (stereo not drawn) the value was 15.1%; for `COc1ccc(S(=O)(=O)NCCC(=O)NC2CCCCCCC2)cc1`, -10.3%.
For `CC(C)n1nc(C(=O)Nc2nnc(SCc3c(Cl)cccc3Cl)s2)c2ccccc2c1=O` the value was 2.74%; for `O=C(CC1CC2CCC1C2)NC1CCCCCCC1` (stereo not drawn), 11.9%; for `O=C(OCc1nnc(-c2ccc(Cl)cc2)o1)C12CC3CC(CC(O)(C3)C1)C2`, 2.61%.
For the molecule `CC(C)N(Cc1cc2ccccc2[nH]c1=O)C(=O)c1cccnc1`, the “hERG current change (%, negative = inhibition) at 1uM” value turned out to be 3.69%.
The value for `Cc1ccc(OCC(O)CN2CCOCC2)cc1` (stereo not drawn) was 12.8%; that for `Cc1ccc(S(=O)(=O)NCCSc2nnnn2-c2ccccc2)cc1` was -4.5%; that for `CCCc1nnc(NC(=O)CCC(=O)Nc2ccc(Br)cc2)s1` was 16.6%.
The value for `COc1ccc(NS(=O)(=O)c2ccc(C)c(NC(=O)CN3C(=O)NC4(CCCC4)C3=O)c2)cc1` was -0.94%; that for `CC(=O)Nc1cc(C(=O)N2CCc3ccccc3C2)ccc1Sc1ccc(F)cc1` was 2.27%.
For `O=c1c(-c2ccc(O)cc2)coc2c([C@@H]3O[C@H](CO)[C@@H](O)[C@H](O)[C@H]3O)c(O)ccc12` the value was 14%; for `N#Cc1cc(Sc2ccccn2)c([N+](=O)[O-])cc1C#N`, 9.57%; for `Cc1nn(C)cc1/C=N\NC(=O)c1ccc2c(c1)c(C)c(C)n2Cc1ccccc1`, 15.9%.
On to `COc1ccccc1CNC(=O)C1CC(c2ccccc2C(F)(F)F)=NO1` (stereo not drawn), for which the “hERG current change (%, negative = inhibition) at 1uM” value was 6.23%.
Regarding `O=C(O)C1C2C=CC(C2)C1C(=O)NCCCN1CCCC1=O` (stereo not drawn), the “hERG current change (%, negative = inhibition) at 1uM” value was found to be 7.12%.
Turning to `COC(=O)C1=C(C)NC(=O)CC1c1cccc(Cl)c1Cl` (stereo not drawn), the “hERG current change (%, negative = inhibition) at 1uM” value was found to be 5.06%.
The value for `COc1ccccc1NC(=O)c1nn(-c2ccccc2)ccc1=O` was 12.1%; that for `CCCCc1n[nH]c2c1/C(=N/O)CC(c1ccccc1)C2` (stereo not drawn) was 16.7%.
In the case of `O=C(NCc1ccccc1CN1CCCCC1)c1ccccc1N1CCCC1=O`, the “hERG current change (%, negative = inhibition) at 1uM” value was determined as 18.3%.
The value for `Cn1cnc2cc(NC(=O)c3ccco3)ccc21` was 16.7%; that for `O=c1[nH]c(CN2CCN(CCO)CC2)nc2ccccc12` was 19.8%.
For `Cn1c(O)c(C=NCCN2CCOCC2)c(=O)[nH]c1=S` the value was 8.39%.
As for `O=C(NC1CCCCC1)c1ccc(-c2ccccc2)cc1`, the “hERG current change (%, negative = inhibition) at 1uM” value worked out at 17.4%.
For `Cc1ccc2c(c1)N(CC(=O)N1CCC(C)CC1)C(=O)c1cccnc1O2` the value was -2.61%; for `COc1ccc(N(C)S(=O)(=O)c2cccc(C(=O)Nc3nc(C)c(C(C)=O)s3)c2)cc1`, 9%.
The value for `CCOC(=O)c1cccc(NC(=O)CCc2nnc3ccc(N4CCN(C)CC4)nn23)c1` was 12.3%.
Take `CCN1CCN(S(=O)(=O)c2ccc3[nH]c(=O)oc3c2)CC1`: the “hERG current change (%, negative = inhibition) at 1uM” value came to 10.9%.
For `c1ccc(Cn2nnnc2C(c2ccccn2)N2CCN(c3ccccc3)CC2)cc1` (stereo not drawn) the value was 6.57%; for `CN(C)c1ncc(C(=O)O)cn1`, 14.2%; for `Cc1ccc(CNC(=O)C2CCC(CNS(=O)(=O)c3cccs3)CC2)cc1` (stereo not drawn), -17.8%.
The value for `COc1ccc(C(=O)N/C(=C\c2ccc(Cl)cc2)C(=O)NCC2CCCO2)cc1` (stereo not drawn) was 4.36%; that for `CCc1nc2ccccc2c(C(=O)Oc2ccc(C(=O)OC)cc2)c1C` was 8.96%.
For `CN(Cc1ccc2c(c1)OCO2)C(=O)c1cc(-c2ccccc2)c(N2CCOCC2)s1`, the “hERG current change (%, negative = inhibition) at 1uM” value is 11.4%.
For `Cc1nc(NC(=O)CSc2ccccc2N)sc1C` the value was 2.21%.
For `CC(C)Oc1ccc(Oc2ccc(C(F)(F)F)cn2)cc1` the value was 10.4%; for `CCN(CC)CC(=O)N1c2ccccc2Sc2ccccc21`, 8.21%; for `CCOC(=O)c1c(NC(=O)C(C)Sc2nnc(C)c(=O)[nH]2)sc2c1CCCC2` (stereo not drawn), 12.4%.
The value for `O=C1c2ccccc2C(=O)N1CSc1nnnn1-c1ccccc1` was 9.46%.
As for `CCOc1ccccc1NC(=O)C(Sc1nnnn1C)c1ccccc1` (stereo not drawn), the “hERG current change (%, negative = inhibition) at 1uM” value is 16.8%.
Regarding `Cc1cc(C)nc(N2CCN(CC(=O)NCc3ccccc3)CC2)n1`, the “hERG current change (%, negative = inhibition) at 1uM” value is listed as -3.58%.
With `COCCCNC(=O)N1c2ccccc2Sc2ccccc21`, the “hERG current change (%, negative = inhibition) at 1uM” value came to 11.2%.
For the molecule `O=C(/C=C/c1ccc(OCCCF)cc1)Nc1ccnc(-c2cccnc2)n1`, the “hERG current change (%, negative = inhibition) at 1uM” value amounted to 11.7%.
Turning to `CCC(C)(C)c1ccc2c(c1)C(=O)c1ccccc1C2=O`, the “hERG current change (%, negative = inhibition) at 1uM” value is on record as 3.25%.
As for `CC(NC(=O)C(NS(=O)(=O)c1cccc2nsnc12)C(C)C)c1ccccc1` (stereo not drawn), the “hERG current change (%, negative = inhibition) at 1uM” value amounted to 3.06%.
`Cn1c(=O)c2c(SCc3c(F)cccc3Cl)nc(CC(C)(C)C)nc2n(C)c1=O`: the “hERG current change (%, negative = inhibition) at 1uM” value came to 8.71%.
For `Cc1ccc(C(=O)NNC(=O)C2CCN(C(=O)OC(C)(C)C)CC2)cc1` the value was 13.3%.
`O=C(NCC(=O)N1CCCCCCC1)c1ccccc1Cl`: the “hERG current change (%, negative = inhibition) at 1uM” value is recorded as 13.5%.
For `Cn1ncc(SCc2ccccc2)c(Cl)c1=O` the value was 16.2%; for `CNC(=O)CN1C(=O)CSc2ncccc21`, 11.3%; for `CCOc1ccc(NC(=O)CN(C)S(=O)(=O)c2cccc3cccnc23)cc1`, 13.1%.
For `COc1ccc(NC(=O)N(CCN2CCCC2)Cc2cc3cc(OC)c(OC)cc3[nH]c2=O)cc1` the value was 4.65%; for `CN1CCN(NC(=O)c2cn(-c3ccccc3)nc2-c2cccc(Br)c2)CC1.Cl`, 21.5%.
For `Cn1nccc1NC(=O)CC1(CC(=O)O)CCCCC1` the value was 8.91%; for `CCOC(=O)N1CCC(NC(=O)Cn2ncc3ccccc32)CC1`, 12.1%; for `COCCC(=O)N1CCC(C(=O)Nc2ccc(Oc3ccccc3)nc2)CC1`, 19.2%.
On to `CCc1ccccc1NC(=S)N(CCN(C)C)C(C)c1ccco1` (stereo not drawn), for which the “hERG current change (%, negative = inhibition) at 1uM” value amounted to 16.2%.
For `CCCCN(CCCC)Cc1ccc(C(=O)NNC(=O)Nc2ccc(Cl)cc2)o1` the value was 9.34%; for `CC(C)=CCc1c([C@@H]2CCc3ccc(O)cc3O2)cc2c(c1O)OC(C)(C)C=C2`, 15.5%; for `Cn1c2ccccc2c2nnc(SCC(=O)NC3CC3)nc21`, 10.4%.
Consider `CC(C)(C)NC(=S)/N=C(\N)N[N+](=O)[O-]`, for which the “hERG current change (%, negative = inhibition) at 1uM” value came out at 9.26%.
The value for `CCCCCCNC(=O)Nc1ccccc1` was 17.7%.
The value for `O=C(COC(=O)Cn1nnc2ccccc21)Nc1ccccc1Br` was 0.589%; that for `C=CSc1sc(Cl)c(N2CCOCC2)c1[N+](=O)[O-]` was 5.62%.
For the molecule `CCCCCCCCCCCCN1C/C(=C\C(=O)OCC)c2cc(C(F)(F)F)ccc2S1(=O)=O`, the “hERG current change (%, negative = inhibition) at 1uM” value is listed as 8.97%.
The value for `O=C(Cc1ncc(C(F)(F)F)cc1Cl)NNc1cccc(F)n1` was 21.4%; that for `O=C(NC(=S)Nc1ccc(S(=O)(=O)Nc2ncccn2)cc1)c1cccc(Br)c1` was 16.6%.
For `CN(CC(=O)Nc1cccc(F)c1)CC(=O)NC(c1ccccc1)c1ccccc1` the value was 2.52%; for `O=C1COc2ccc(S(=O)(=O)NCCc3ccc(Cl)cc3)cc2N1`, 6.66%; for `Cc1ccc(C(C)C)c(OCc2nn(CC(=O)c3ccc(Cl)cc3)c3[n+]2CCCCC3)c1.[Br-]`, 6.6%.
With `COc1ccc(NC(=O)CCN2CC(C)OC(C)C2)c(OC)c1.Cl` (stereo not drawn), the “hERG current change (%, negative = inhibition) at 1uM” value was determined as 11.8%.
For `C/C(=N/NC(=O)CSc1nc2ccccc2s1)c1ccncc1` the value was 4.94%; for `C[C@@H](C(=O)O)[C@H]1C[C@]1(C)[C@H](NC(=O)OCc1ccccc1)c1ccccc1`, 8.33%.
As for `Cc1ccc(C(C)C)cc1OCC(=O)NC1CCCCCCC1`, the “hERG current change (%, negative = inhibition) at 1uM” value came to 11.5%.
The value for `O=C(c1cc(COc2ccc(F)cc2Cl)on1)N1CCC(c2ccncc2)CC1` was -29.1%; that for `O=C(O)c1ccc(Nc2cc(Cl)c3nonc3c2[N+](=O)[O-])cc1` was 13.3%; that for `O=C(C[n+]1cc(-c2ccc(Cl)cc2)n2c1CCC2)Nc1nc(-c2ccc(F)cc2)cs1.[Cl-]` was 12.6%.
For `CC(C)c1ccc(CN(C(=O)/C=C/c2ccco2)C2CCS(=O)(=O)C2)cc1` (stereo not drawn) the value was 11.3%; for `CN(C)S(=O)(=O)c1ccc(Cl)c(NC(=O)CN2C(=O)NC3(CCc4ccccc43)C2=O)c1` (stereo not drawn), 6.94%; for `N#C/C(=C\c1ccc(OCCN2CCOCC2)cc1)C(=O)Nc1ccc(S(N)(=O)=O)cc1`, 13.3%.
The value for `O=C1c2ccccc2C(=O)N1CCCc1nc(-c2ccc(Cl)cc2)no1` was 11.6%.
